Measurements as given in PubChem BioAssay AID1963576 (National Center for Advancing Translational Sciences (NCATS), 2024).
Hit rate of the full screen: of about 46,000 compounds, about 60 (0.1%) were called active. Roughly 3% stayed inconclusive and do not appear here. The call rests on the fitted dose curve; in most records, active means well fitted inhibition curve with a large enough effect; inconclusive means small, poorly fitted or top-dose-only effect; inactive means no such curve, though single readings can be large or run the other way. This is one part of the list.

assay: Primary qHTS assay for Inhibitors of ovarian cancer metastasis using an organotypic tumor microenvironment (TME) model.; further: nearly all actives have a fitted effect of over 65% in size;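 on activity change, negative = inhibition: plate controls were DMSO wells for no effect and tomatine positive control wells for full effect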; details: SKOV3ip1-GFP adhesion/invasion on 3D omental model, fluorescence; series mostly up to 45.8 µM; activity change, negative = inhibition: at the top concentration
How it was run: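 Primary human omental fibroblast/mesothelial 3D culture pre-formed 48 h. SKOV3ip1-GFP cells added with compounds (0.36-46 umol/L), incubated 2 h RT/16 h 37 C, fixed; GFP cells quantified at 488/509 nm.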

| SMILES | activity change, negative = inhibition | outcome |
| --- | --- | --- |
| COc1ccc2c(c1)c1c(c(=O)n(Cc3ccccc3)c(=O)n1CC(=O)Nc1c(C)cccc1C)n2C | inactive: -2.6% | – |
| Cc1ccccc1-c1nc(CS(=O)(=O)CC(=O)Nc2cccc(C(F)(F)F)c2)c(C)o1 | – | inactive |
| COc1ccc(Cn2c(=O)[nH]c3cc(C(=O)N4CCN(c5ccccc5)CC4)ccc3c2=O)cc1 | – | inactive |
| Cc1ccc(CNC(=O)CCC(=O)N2Cc3ccccc3Oc3ncccc32)cc1 | inactive: -11.7% | – |
| COc1ccc(OC)c(CCNc2nccn(-c3ccc(C)c(C)c3)c2=O)c1 | inactive: -2.44% | – |
| CCCn1ccc2c(OCC(=O)Nc3ccccc3OCC)cccc2c1=O | inactive: 0.955% | – |
| Cn1c(SCc2cccc(F)c2)nc2c([nH]c3ccccc32)c1=O | – | inactive |
| O=C(NCC(c1cccnc1)N1CCOCC1)C(=O)Nc1ccc(F)cc1 (configuration not stated) | inactive: 2.57% | – |
| CCOC(=O)c1ccc2c(c1)N(Cc1cccc(C(F)(F)F)c1)C(=O)c1ccccc1S2(=O)=O | – | inactive |
| O=C(Cn1c(=O)n(-c2ccc(F)cc2)c(=O)c2sc3ccccc3c21)NC1CCCCC1 | inactive: 5.14% | – |
| CCCOc1ccc(Nc2cc(C)nc(C)n2)cc1 | inactive: 1.84% | – |
| CCc1ccccc1Nc1cc(C(=O)NCCc2ccccc2)c2ccccc2n1 | inactive: -3.37% | – |
| COc1ccc(N2CCN(Cc3cc(=O)oc4ccc(OC)cc34)CC2)cc1 | – | inactive |
| COc1ccccc1NC(=O)C1=C(C)Nc2nc3ccccc3n2C1c1cccc(Br)c1 (configuration not stated) | – | inactive |
| COc1ccc(C(=O)Oc2c(Sc3ccccc3)c(C)nn2-c2ccccc2)cc1OC | inactive: -3.13% | – |
| Cc1ccc(NC(=O)CN2C(=O)CSc3ccc(S(=O)(=O)N4CCCC4)cc32)c(C)c1 | – | inactive |
| COCCCNS(=O)(=O)c1ccc(N2CCCCS2(=O)=O)cc1 | inactive: -4.15% | – |
| COc1ccc(CCNC(=O)C2CCN(c3nc4ccccc4nc3C(F)(F)F)CC2)cc1OC | – | inactive |
| COc1ccc(-c2coc3c2c(C)cc2oc(=O)c(C)c(C)c23)cc1 | inactive: 7.81% | – |
| CC1CCC(Nc2ncnc3onc(-c4ccc(Cl)cc4)c23)CC1 (configuration not stated) | inactive: -2.51% | – |
| CCN(CCO)CCCOc1ccc2c(Nc3cc(CC(=O)Nc4cccc(F)c4)[nH]n3)ncnc2c1 | inactive: 7.26% | – |

| SMILES | activity change, negative = inhibition | outcome |
| --- | --- | --- |
| CC(=O)OCc1cnc(C)c2oc(=O)c(C(=O)Nc3ccc(C)cc3Cl)cc12 | inactive: -0.242% | – |
| COc1ccc(NC(=O)C2=C(C)C(=O)OC23CCN(C(C)C)CC3)cc1Cl | – | inactive |
| Cc1ccccc1NC(=O)CSc1nc2ccc(NC(=O)c3ccccc3)cc2s1 | inactive: -2.66% | – |
| Cc1cccc(OCC(=O)Nc2ccc3nc(Nc4cccc(C(F)(F)F)c4)cc(C)c3c2)c1 | inactive: -3.89% | – |
| CCCCN1C(=O)CN(C2CCCCCC2)C(=O)C1c1ccc(OC(C)C)c(OC)c1 (configuration not stated) | – | inactive |
| Cc1ccc(CNC(=O)c2oc3ccc(S(=O)(=O)N4CCC(C)CC4)cc3c2C)cc1 | inactive: -2.11% | – |
| COc1ccccc1CNC(=O)c1ccc2c(c1)N(Cc1cc(C)ccc1C)C(=O)c1ccccc1S2 | inactive: 3.12% | – |
| CCCCNC(=O)c1cc2c(=O)n3cccc(C)c3nc2s1 | inactive: -0.319% | – |
| CC(=O)c1cc(-c2ccccc2)n(CCC(=O)Nc2ccc(C(C)C)cc2)c1C | inactive: -6.35% | – |
| Cc1ccc(-n2ncc(C(=O)N3CCN(Cc4ccccc4)CC3)c2C2CCN(C(=O)OC(C)(C)C)CC2)cc1 | inactive: 0.409% | – |
| CCOc1ccc(NC(=O)Cn2cc(C(=O)c3ccc(F)cc3)c(=O)c3cc4c(cc32)OCCO4)cc1 | inactive: 0.308% | – |
| COc1ccc(-c2cc(C(F)(F)F)n3nc(C(=O)O)c(Cl)c3n2)cc1OC | inactive: 2.49% | – |
| CC(C)(C)OC(=O)N1CCC(c2c(C(=O)NCCN3CCCC3)cnn2-c2ccc(Cl)cc2)CC1 | inactive: -5% | – |
| Cc1ccc(-n2ccnc(NCCc3ccc(S(N)(=O)=O)cc3)c2=O)c(C)c1 | – | inactive |
| COc1ccc(NC(=O)Cn2cnc3ccc(S(=O)(=O)N4CCC(C)CC4)cc3c2=O)cc1Cl | – | inactive |
| CCOc1ccc(/C=C/c2nc(C#N)c(NC3CCCCC3)o2)cc1 | inactive: 8.25% | – |
| Cc1oc(-c2ccc(C(=O)NCc3ccc(F)cc3)cc2)nc1CS(=O)c1ccccc1 (configuration not stated) | inactive: -7.84% | – |
| CC(C)c1ccc(NC(c2nnc(-c3ccccc3)o2)c2ccc(F)cc2Cl)cc1 (configuration not stated) | inactive: 5.96% | – |
| CCN(CC)CCNC(=O)c1ccc(-c2nc(CS(=O)(=O)c3ccc(C)cc3)c(C)o2)cc1 | – | inactive |
| COc1ccccc1-c1nnc(SCC(N)=O)o1 | inactive: -1.31% | – |
| COc1ccccc1OCCn1c(C(C)Oc2ccccc2)nc2ccccc21 (configuration not stated) | inactive: 3.55% | – |

| SMILES | activity change, negative = inhibition | outcome |
| --- | --- | --- |
| Cc1cc(C)cc(C(=O)Nc2c(C(=O)Nc3ccccc3F)oc3ccccc23)c1 | – | inactive |
| CC(=O)c1cc2c(cc1N/C(=N/S(=O)(=O)c1ccccc1)c1ccc(Cl)cc1)OCO2 | inactive: -29.1% | – |
| CCN(CC)CCNc1ncnc2c1cnn2-c1cc(Cl)ccc1C | inactive: -11.3% | – |
| CCNc1nc(N)nc(Oc2ccc(OCC(=O)OC)nn2)n1 | inactive: -2.19% | – |
| CCOc1ccc(-c2nc(CNC(=O)NC3CCCCC3)c(C)o2)cc1 | inactive: 1.97% | – |
| Cc1ccc(N2CC(C(=O)NCCS(=O)(=O)N3CCN(c4ccccc4)CC3)CC2=O)cc1C (configuration not stated) | inactive: -35.6% | – |
| Cc1ccc(C)c(Nc2nn3c(=O)c4ccc(C(=O)NCCC5=CCCCC5)cc4nc3s2)c1 | inactive: 10.2% | – |
| O=C(CCc1ccccc1)N(Cc1cccnc1)c1nc2c(F)cc(F)cc2s1 | inactive: -4.56% | – |
| Cc1ccc(C)c(NC(=O)N(C)CCc2c(C)nn(C)c2C)c1 | inactive: 1.61% | – |
| CCOc1ccc(OCc2ccc(C(=O)Nc3cc(OC)c(OC)c(OC)c3)o2)cc1 | inactive: -1.58% | – |
| CC(C)c1ccc(-c2noc(SCC(=O)N3CCN(c4ccc(F)cc4)CC3)n2)cc1 | inactive: 15.9% | – |
| COc1ccc(CCNS(=O)(=O)c2cc(-c3cc(C)no3)ccc2OC)cc1OC | inactive: -0.526% | – |
| Cc1cccc2nc(-c3ccc(N(C)C)cc3)c(Nc3ccc4c(c3)OCO4)n12 | inactive: -2.52% | – |
| COc1ccc(CCNc2nc3ccc(Cl)cc3n3cnnc23)cc1OC | inactive: -5.12% | – |
| O=C(NCCc1csc(-c2ccc(Cl)cc2)n1)c1ccco1 | inactive: -1.16% | – |
| CCOc1ccccc1C(=O)Nc1cccc2ccc(C)nc12 | – | inactive |
| COc1cccc(CNC(=O)CSc2nc(=O)[nH]c3c2CCC3)c1 | inactive: 3.14% | – |
| CCCN(C(=O)C(=O)Nc1ccc2nc3n(c(=O)c2c1)CCCCC3)c1ccc(OCC)cc1 | inactive: 7.43% | – |
| COc1cc(NC(=O)c2cc(Cl)ccc2Cl)ccc1NC(=O)c1cc2ccccc2o1 | inactive: 1.57% | – |
| CCOC(=O)c1ccccc1NC(=O)Cn1c(=O)n(CCC(=O)N2CCc3ccccc3C2)c(=O)c2ccccc21 | inactive: 2.91% | – |
